# Reference: PubChem BioAssay AID662 (National Center for Advancing Translational Sciences (NCATS), 2007)
# The whole screen tested about 71,000 compounds, of which about 1,800 (2.5%) were called active. Inconclusive means that the source gave no clear call. Such entries were picked first, then a sample of the others. Calls follow the shape of the dose curve; as a rule, active = well fitted activation curve with a large enough effect in the signal ratio, with a control signal flat (not every such curve was filed as active); inconclusive = small, poorly fitted or top-dose-only effect, or effect the other way, or a change in a side signal; inactive = flat fitted curve, though single readings scatter; the % refers to the signal ratio. Potencies of inconclusive entries are doubtful fits and often do not repeat.
# Assay: Cell signaling CRE-BLA (Fsk stim); as to activity change, negative = inhibition: % of control where 0% means no effect
# Conditions: CHO CRE-bla reporter (cAMP response element driving beta-lactamase), forskolin EC10, beta-lactamase ratio; activity change, negative = inhibition: at 38.2 µM (top of the series) unless noted
# Procedure, shortened: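 Titrated compounds plus EC10 NKH 477 on CHO CRE-bla cells, 3 h, 37 °C. CCF4, 2 h RT. Ratio 460/530 nm → AC50.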
# Potency is read from the fitted curve at half-maximal effect; tags tell the direction and shape of the fitted curve.
Structure (SMILES),Potency,"activity change, negative = inhibition"
COc1cc(C2NC(=O)NC(C)=C2C(=O)OCc2ccc(C)cc2)cc(OC)c1O (stereo not drawn),"inconclusive: 12.6 µM [rising, single point]",–
CCn1ncc(Br)c1C(=O)Nc1sc2c(c1C(N)=O)CCC2,active: 2.51 µM,–
COCCn1c(COc2ccc(C)cc2)nc2ccccc21,–,inactive: 13.2%
CCOC(=O)/C=C1\SCC(=O)N1Cc1nnc(-c2ccccc2Br)o1,"inconclusive: 5.01 µM [falling, single point]",–
Cc1ccc(C)c(C(=O)N(Cc2nc(-c3ccc(Cl)cc3)no2)C(C)C)c1,–,inconclusive: -15.4%
COc1ccc(N2CSC3=C(C#N)C(c4cccc(OC)c4OC)CC(=O)N3C2)cc1 (stereo not drawn),active: 3.98 µM,–
COc1ccccc1-n1cc(C(=O)NCC(=O)N2CCN(c3ccccn3)CC2)c2ccccc2c1=O,–,inconclusive: -12.5%
COC(=O)C(NC=O)C(O)(Cc1ccccc1)C(F)(F)F (stereo not drawn),"inconclusive: 3.16 µM [falling, partial curve]",–
COc1ccccc1-c1cc2nc(C)c(CCC(=O)NCc3ccco3)c(C)n2n1,–,inactive: -6.69%
NC(=O)c1ccccc1-c1nc(-n2ccnc2)c2ccccc2n1,–,inactive: -14.4%
CN1CCN(C(=O)c2ccc(COc3ccc(Cl)cc3Cl)cc2)CC1,–,inconclusive: 25.7%
COc1ccc(-c2csc(N(CC3CCCO3)C(=O)c3ccco3)n2)cc1 (stereo not drawn),"inconclusive: 3.16 µM [falling, single point]",–
CCOC(=O)C(C(=O)OCC)C(=O)c1cc(OC)c(OC)c(OC)c1,"inconclusive: 15.8 µM [rising, single point]",–
CCOC(=O)CSc1nnc(-c2cccc(Cl)c2)n1CC,"inconclusive: 5.01 µM [falling, single point]",–
CN(C)C(N)=NCCC[C@H](N)C(=O)O,–,inactive: 3.25%
N#Cc1cc2nc(O)c(O)nc2cc1[N+](=O)[O-],–,inconclusive: -26.6%
Cc1ccc(-n2c(C)nc3c(cnn3-c3ccc(F)cc3)c2=O)cc1,–,inconclusive: 13.7%
COc1ccc(-c2cc(C(F)(F)F)n3nc(C(=O)O)cc3n2)cc1OC,–,inconclusive: 27.5% [at 7.6 µM]
COC(=O)c1ccc(-n2nnnc2SCC(=O)NCc2cccc(C(=O)O)c2)cc1,–,inactive: 1.6%
CCOC(=O)c1cnc2c(Cl)c(Cl)ccc2c1N1CCN(C)CC1,"inconclusive: 12.6 µM [rising, partial curve]",–
CC1CC(OC(=O)c2ccccc2O)CC(C)(C)C1 (stereo not drawn),–,inactive: 0.242%
O=C(CCN1C(=O)C2CC=CCC2C1=O)N1CCN(c2ccccn2)CC1 (stereo not drawn),–,inconclusive: 18.6%
CCOC(=O)N1CCN(c2ncnc3c2oc2nc(CC(C)C)c4c(c23)CCC4)CC1,–,inactive: -0.166%
